Reference: the RNAGym collection of RNA variant scans (doi:10.7554/elife.90254)
The source gives no read counts; variants with many changes may rest on few reads.

B1: OR4K15 (parent)
chain: GUUAACGGUCAUAGGCCAUGGAAACUAGGAGCACCAUUUCGCUGCCAGUGAAGAAAUGAACAAAGAAAAUCUGGGCCAGGCAGGCAUCAAAAGAAAUAGUCUUGCGCUCAACCAGAAAGUCUGUAAUCAUUUUAAGGGUA

Variants of: B1
Assay: self-cleavage, relative activity (ratio to wild type); higher = more cleavage; in vitro, sequencing; the parent is a self-cleaving ribozyme

Variant | self-cleavage
GUUAACGGUCAUAGGCCAUGGAAACUAGGAGCGCCAUUUCGCUGCCAGUGAAGGAAUGAACAAAGAAAACCUGGGCCAGGCAGGCAUCAAAAGAAGUAGUCUUGCGCUCAACCAGAAAGACUGUAAUCAUUUUAAGGGUA [A33G A54G U70C A96G U120A] | 0.29
GUUAACGGUCAUAGGCCAUGGAAACUAGGAGCGCCAUUUCGCUGCCAGUGAGGAAAUGAACAGAGAAAAUCUGGGCCGGGCAGGCAUCAAAAGAAAUAGUCUUGCGCUCAACCAGAAAGUCUGUAAUCAUUUUAAGGGUA [A33G A52G A63G A78G] | 0.21
GUUAACGGUCAUAGGCCAUGGAAACUAGGAGCCCCAUUUCGCUGCCAGUGAAGAAAUGAACAAAGAAAAUCUGGGCCAGGCAGGCAUCAAGAGAAAUAGUCUUGCGCUCAACCAGAAAGUCAGUAAUCAUUUUAAGGGUA [A33C A91G U122A] | 1.19
GUUAACGGUCAUAGGCCAUGGAAACUAGGAGCGCCAUUUCGCUGCCAGUGAAGAAGUGAACAAAGUAAAUCUGGGCCAGGCAGGCAUCAAAAGAAAUAGUCUUGCGCUCAACCAGAAAGUCUGUAAUCAUUUUAAGGGUA [A33G A56G A66U] | 0.57
GUUAACGGUCAUAGGCCAUGGAAACUAGGAGCGCCGUUUCGCUGCCAGUGAAGAAGUGAACAAAGAAAAUCUGGGCCUGGCAGGCGUCAAAAGAAAUAGUCCUGCGCUCAACCAGAAAGUCUGUAAUCAUUUUAAGGGUA [A33G A36G A56G A78U A86G U102C] | 0.53
GUUAACGGUCAUAGGCCAUGGAAACUAGGAGCCCCAUUUCGAUGCCAGUGAAGAAAUGAGCAAAGAAAAUCUGGGCCAGGCAGGCAUCAAAAGAAAUAGUCUUGCGCUCAACCAGAAAGUCUGUAAUCAUUUUAAGGGUA [A33C C42A A60G] | 0.35
GUUAACGGUCAUAGGCCAUGGAAACUAGGAGCGCCAUUUCGCUGCCAGUGAAGAAGUGAGCAAAGAAAAUCUGGGCCAGGCAGGCAUCAAAAGAAAUAGUCUUGCGCUCAACCAGAAAGUCUGUAAACAUUUUAAGGGUA [A33G A56G A60G U127A] | 1.78
GUUAACGGUCAUAGGCCAUGGAAACUAGGAGCGCCAUUUCGCUGCCAGUGAUGAAAUGAACAAAGAAAAUCUGGGCCAGGCAGGCAUCAAAAGAAAUAGUCUUGCGCCCAACCAGAGAGUCUGUAAUCAUUUUAAGGGUA [A33G A52U U108C A117G] | 0.01
GUUAACGGUCAUAGGCCAUGGAAACUAGGAGCGCCAUUUCGCUGCCAGUGGAGAAAUGAACAAAGAAAAUCUGGGCCAGGCAGGCAUCAAAAGAAAUAGUCUUGCGCUCAACCAGAAAGUCUGCAAUCAUUUUAAGGGUA [A33G A51G U124C] | 0.26
GUUAACGGUCAUAGGCCAUGGAAACUAGGAGCGCCAUUUCGCUGCCAGUGAGGAAAUGAACAAAGAAGAUCUGGGCCAGGCAGGCAUCAAAUGAAAUAGUCUUGCGCUCAACCAGAAAGUCUGUAAUCAUUUUAAGGGUA [A33G A52G A68G A92U] | 1.37
GUUAACGGUCAUAGGCCAUGGAAACUAGGAGCGCCCUUUCGCUGCCAGUGAAGAAAUGAACAAAGAAAAUCUGGGCCAGGCAGGCAUCGAAAGAAAUAGUCUUGCGCUCAACCAGAAAGUCUGUAAUCAUUUUAAGGGUA [A33G A36C A89G] | 0.3
GUUAACGGUCAUAGGCCAUGGAAACUAGGAGCGCCAUUUCGCUGCCAGUGAGGAAAUGAACAAAGAAAAUCUGGGCCAGGCAGGCAUCAAAAGAAAUAGUCUUGCGCUCAACCAGAAAGCCUGUAAUCAUUUUAAGGGUA [A33G A52G U120C] | 0.25
GUUAACGGUCAUAGGCCAUGGAAACUAGGAGCGCCAUUUCGCUGCCAGUGAAGAACCGAACAAAGAGAAUCUGGGCCAGGCAGGCAUCAAAAGAAAUAGCCUUGCGCUCAACCUGAAAGUCCGUAAUCAUUCUAAGGGUA [A33G A56C U57C A67G U100C A114U U122C U132C] | 0.01
GUUAACGGUCAUAGGCCAUGGAAACUAGGAGCGCCAUUUCGCUGCCAGUGGAGAAAUGAACAAAGAAAAUCUGGGCCAGGCAGGCAUCAAAAGAAAUAGUCUUGCGCCCAACCAGAAAGUCUGUAAUCAUUUUAAGGGUA [A33G A51G U108C] | 0.01
GUUAACGGUCAUAGGCCAUGGAAACUAGGAGCGCCAUUUCGCUGCCUGUGAAGAAAUGAACAAAGAUAAUCUGGGCCAGGCAGGCAUCAAAAGAAAUAGUCUUGCGCUCAACCAGAAAGUCUGUAAUCAUAUUAAGGGUA [A33G A47U A67U U131A] | 0.37
GUUAACGGUCAUAGGCCAUGGAAACUAGGAGCCCCAUCUCGCUGCCAGCGAAGAAAUGAACAAAGAAAAUCUGGGCCAGGCAGGCAUCAAACGAAAUAGUCUUGCGCUCAACCAGAAAGUCUGUAAUCAUUUUAAGGGUA [A33C U38C U49C A92C] | 1.95
GUUAACGGUCAUAGGCCAUGGAAACUAGGAGCGCCAUUUCGCUGCCGGUGAAGAAAUGAACAAGGAAAAUCUGGGCCAGGCAGGCAUCAAAAGAAAUAGUCUUGCGCUCAACCAGAAAGUCUGUAAUCAUUUUAAGGGUA [A33G A47G A64G] | 0.77
GUUAACGGUCAUAGGCCAUGGAAACUAGGAGCGCCAUUUCGCUGCCAGUGGAGAAAUGAGCAAAGAAAAUCUGGGCCAGGCAGGCAUCAAGAGAAAUAGUCUUGCGCUCAACCAGAAAGUCUGUAAUCAUUUUAAGGGUA [A33G A51G A60G A91G] | 0.41
GUUAACGGUCAUAGGCCAUGGAAACUAGGAGCGCCCUUUCGCUGCCAGUGAAGAAAUGAACAAAGAAAAUCUGGGCCAGGCAGGCAUCAAACGAAAUAGUCUUGCGCUCAACCAGAAAGUCUGUAAUCAUUUUAAGGGUA [A33G A36C A92C] | 2.16
GUUAACGGUCAUAGGCCAUGGAAACUAGGAGCCCCAUUUCGCUGCCAGUGAAGAAAUGAACAAAGAAAAUCCGGGCCAGGCAGGCAACAAAAGAAAUAGUCUUGCGCUCAACCAGAAAGUCUGUAAUCAUUUUAAGGGUA [A33C U72C U87A] | 0.16
GUUAACGGUCAUAGGCCAUGGAAACUAGGAGCCCCAUUUCGCUGCCAGUGAAUAAAUGAACAAAGAAAAUCUGGGCCAGGCAGGCAUCAAAAGGAAUAGUCUUGCGCUCAACCAGAAAGUCCGUAAUCUUUUUAAGGGUA [A33C G53U A94G U122C A129U] | 0.3
